Experimental data: PubChem BioAssay AID493208 (National Center for Advancing Translational Sciences (NCATS), 2011)
Among all 44,000 compounds or so, about 340 (0.77%) were called active. Another 5% or so got no clear call; they are omitted. Calls come from the whole dose curve; as a rule, active = well fitted inhibition curve with a large enough effect; inconclusive = small, poorly fitted or top-dose-only effect; inactive = flat fitted curve, though single readings scatter. Some of the results follow.

Assay: Acumen qHTS Assay for Inhibitors of the mTORC1 Signaling Pathway in MEF (Tsc2-/-, p53-/-) Cells: Sytravon; note: nearly all actives have a fitted effect of over 50% in size;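 for activity change, negative = inhibition: plate controls were DMSO for no effect and rapamycin for full effect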
Conditions: phospho-rpS6 immunofluorescence/PI, 24 h; series mostly up to 38.3 µM; activity change, negative = inhibition: at the top concentration
Method in brief: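 Read-out: phospho-S6 Alexa-488 intensity over PI intensity per well, scored as % active cells using thresholds from rapamycin (7.5 nM) and DMSO controls. Tsc2-/-, p53-/- MEFs exposed to compound for 24 h; PI cell count recorded as viability.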
Potency is the fitted concentration of half-maximal effect.

Row | Compound | activity change, negative = inhibition | Potency
1 | CCOC(=O)C1CCCN(C(=O)c2ccc3c(c2)N(Cc2cccc(Cl)c2)C(=O)c2ccccc2S3(=O)=O)C1 (centres undefined) | inactive: -11.4% | –
2 | COc1ccc(C)cc1NC(=O)CN1C(=O)COc2ccc(S(=O)(=O)N3CCCCCC3)cc21 | inactive: -4.1% | –
3 | CCCN(C(=O)Cn1c(=O)oc2cc(Cl)ccc21)c1ccc(C(C)C)cc1 | inactive: -0.616% | –
4 | CC(C)c1ccc(NC(=O)CN2C(=O)c3cccc4cccc2c34)cc1 | inactive: 4.27% | –
5 | CCC1CCc2c(sc(NC(=O)C3c4ccccc4Oc4ccccc43)c2C#N)C1 (centres undefined) | inactive: -9.97% | –
6 | CCc1ccc(S(=O)(=O)c2cn(C)c3cc(OC)c(OC)cc3c2=O)cc1 | inactive: -11.2% | –
7 | CCOc1ccccc1CNC(=O)CSc1n[nH]c(-c2ccccc2Cl)n1 | inactive: -19.4% | –
8 | Cc1cc(C)c(S(=O)(=O)NCC(c2ccc(N(C)C)cc2)N2CCc3ccccc32)c(C)c1 (centres undefined) | inactive: 0% | –
9 | Cc1ccc(C)c(CN2C(=O)c3ccccc3S(=O)(=O)c3ccc(C(=O)N4CCN(C)CC4)cc32)c1 | inactive: -15.9% | –
10 | Cc1cc(Nc2cc(Cl)ccc2C)n2nc(Cc3ccccc3)nc2n1 | inactive: 2.42% | –
11 | O=C(CN1C(=O)COc2ccc(S(=O)(=O)N3CCCCC3)cc21)NCc1ccccc1Cl | inactive: -19.5% | –
12 | COc1cccc(CNC(=O)CCc2nc(-c3ccc(C)cc3)no2)c1 | inactive: -14.1% | –
13 | COc1ccccc1NC(=O)CSc1oc(-c2ccco2)nc1S(=O)(=O)c1ccc(Br)cc1 | inactive: -16.5% | –
14 | Cc1cc(OCCn2cc(C(=O)c3ccco3)c3ccccc32)ccc1Cl | inactive: -24.7% | –
15 | COc1ccc(-c2nnc(SCC(=O)Oc3cccc(C)c3C)o2)cc1 | inactive: 1.33% | –
16 | Cc1nn(CC(=O)NCc2cccc(F)c2)c(=O)c2c(C)n(-c3ccc(Cl)cc3)nc12 | inactive: -0.315% | –
17 | COc1ccc(-n2cc(C(=O)NCc3ccc(Cl)cc3)c3ccccc3c2=O)cc1 | inactive: 0% | –
18 | COc1ccc2nc(N(Cc3cccnc3)C(=O)c3ccco3)sc2c1 | inactive: -0.916% | –
19 | CCOC(=O)C1=C(CN2CCN(c3cc(C)ccc3C)CC2)NC(=O)NC1c1ccccc1 (centres undefined) | inactive: -18.7% | –
20 | COc1ccc(N(C(=O)c2ccccc2C)S(=O)(=O)c2ccc(C)cc2)cc1 | inactive: -0.14% | –
21 | Cc1ccc2c(c1)c1c(c(=O)n(-c3ccccc3)c(=O)n1CC(=O)NCCC1=CCCCC1)n2C | inactive: -14.7% | –
22 | CC1CN(C(=O)CCC(=O)NCc2cccs2)c2cc(Cl)ccc2O1 (centres undefined) | inactive: -3.38% | –
23 | CCOC(=O)c1cc(-c2ccc(C)cc2)n(CC(=O)Nc2ccc(OC)c(Cl)c2)c1C | inactive: -21.7% | –
24 | Cc1ccc(CCNC(=O)c2cc3sccc3n2Cc2ccc(Cl)cc2)cc1 | inactive: -6.63% | –

Row | Compound | activity change, negative = inhibition | Potency
25 | COc1cccc(CN2C(=O)C3(SCC(=O)N3c3cc(C)cc(C)c3)c3ccccc32)c1 (centres undefined) | inactive: -6.64% | –
26 | O=C(c1ccc2c(c1)OCCO2)N(Cc1cccnc1)c1nc2ccc(Cl)cc2s1 | inactive: 3.79% | –
27 | CCc1ccc2oc(C(=O)NCCc3ccc(OC)c(OC)c3)cc(=O)c2c1 | inactive: -9.88% | –
28 | COc1ccccc1N1CCN(S(=O)(=O)c2cc(-c3cc(C)no3)ccc2C)CC1 | inactive: 0.724% | –
29 | CCC(C)NC(=O)c1ccccc1NC(=O)C1CCN(S(=O)(=O)Cc2ccccc2)CC1 (centres undefined) | inactive: 3.8% | –
30 | Cc1ccc(-c2nnn(CC(=O)N(CC(=O)NCCC(C)C)c3ccc(F)cc3)n2)cc1 | inactive: -3.29% | –
31 | CCCCCOC(=O)c1ccc(Nc2nc(C(=O)OCC)nc3ccccc23)cc1 | inactive: 9.18% | –
32 | Cc1ccc(C(C)C)c(OCC(=O)Nc2nc3c(s2)CCCC3)c1 | inactive: -16.1% | –
33 | COc1ccc(S(=O)(=O)Nc2cc(-c3cn4cccc(C)c4n3)ccc2C)cc1C | inactive: -22.1% | –
34 | O=C(NCCc1ccc(F)cc1)C(=O)NCC(c1ccc2c(c1)OCO2)N1CCOCC1 (centres undefined) | inactive: -4% | –
35 | Cc1ccc2nc(-c3c[nH]c4ccccc34)c(Nc3ccccc3)n2c1 | inactive: -7.32% | –
36 | Cc1coc2c1c(C)cc1oc(=O)c(CC(=O)NCc3ccc(Cl)cc3)c(C)c12 | inactive: -0.289% | –
37 | CCCN1CCN(CC2=C(C(=O)OCC)C(c3ccc(OC(C)C)cc3)NC(=O)N2)CC1 (centres undefined) | inactive: -1.03% | –
38 | CSc1nc2c(sc3ccccc32)c(=O)n1Cc1ccc(C)cc1 | inactive: -0.799% | –
39 | CCn1c(=O)c(=O)n(CC)c2cc(N3CCCCC3)c(NC(=O)c3ccccc3OC)cc21 | inactive: -3.45% | –
40 | COc1ccccc1-c1c(C)nn2c(N3CCN(c4ccccc4)CC3)cc(C)nc12 | inactive: 3.12% | –
41 | CCOc1ccc(-c2nc(CSCC(=O)NCCc3ccc(OCC)c(OCC)c3)c(C)o2)cc1 | inactive: 0.0781% | –
42 | COc1ccc(OC)c(CNC(=O)CN2N=C(c3ccc(Cl)cc3)CCC2=O)c1 | inactive: 1.98% | –
43 | CCC(C)NC(=O)CSc1c2c(nc3cc(Cl)ccc13)CCCC2 (centres undefined) | inactive: -3.11% | –
44 | O=C(Nc1ccc2nc(SCC(=O)N3CCOCC3)sc2c1)c1ccc(Br)cc1 | inactive: -6.89% | –
45 | COc1ccc(C(=O)Nc2cc(-c3nc4ccccc4s3)ccc2OC)cc1 | – | active: 16.5 µM
46 | C=Cc1ccc(Cn2c(C(=O)O)c(CNC3CCCCC3)c3ccc(OC)cc32)cc1 | inactive: -12% | –
47 | COc1cccc(CNC(=O)C(=O)NCC(c2ccc3c(c2)OCO3)N2CCOCC2)c1 (centres undefined) | inactive: 0.0602% | –
48 | CCOC(=O)c1ccccc1NC(=O)Nc1cc2c(cc1N1CCCC1)n(C)c(=O)n2C | inactive: -0.519% | –

Row | Compound | activity change, negative = inhibition | Potency
49 | CCOc1ccc(NC(=O)CSc2nnc(CNC(=O)C34CC5CC(CC(C5)C3)C4)n2CC)cc1 | inactive: 3.73% | –
50 | COc1ccc(-n2nc3cc(C)c(NC(=O)Cc4ccc(Cl)cc4)cc3n2)cc1 | inactive: 1.31% | –
51 | Cc1cc2oc(C(=O)Nc3cccc(-c4nc5ccccc5o4)c3)c(C)c2cc1C | inactive: 0% | –
52 | CCCN1CN=C(NS(=O)(=O)c2ccc(NC(C)=O)cc2)NC1 | inactive: -1.81% | –
53 | O=C(NCCc1ccccc1)c1ccc(Cn2c(SCc3ccccc3F)nc3cccnc32)cc1 | inactive: -13.6% | –
54 | O=C(CSc1nc(=O)n(Cc2ccncc2)c2c1CCC2)Nc1ccc(F)cc1F | inactive: 0.618% | –
55 | CCc1ccc(NC(=O)CSc2nc(-c3cccc(OC)c3)nc3c2Cc2c(CO)cnc(C)c2O3)cc1 | inactive: -2.34% | –
56 | CC(Oc1ccccc1)C(=O)Nc1ccccc1C(=O)OCc1cc(=O)n2nc(C(C)C)sc2n1 (centres undefined) | inactive: 0% | –
57 | CCCC12CN3CC(CCC)(CN(C1)C3c1ccc(OC(C)C)cc1)C2=O (centres undefined) | inactive: -23.7% | –
58 | COc1cccc(Cn2c(C)c(CNC3CCCCC3)c(C(=O)O)c2C)c1 | inactive: -1.28% | –
59 | Cc1c(C(=O)N(C)C)sc2c1c(=O)n(-c1ccc(Cl)c(Cl)c1)c(=O)n2CC(=O)N1CCCCC1C (centres undefined) | inactive: -1.86% | –
60 | CCCc1cc(=O)[nH]c(Nc2cc(C)cc(C)c2)n1 | inactive: 3.24% | –
61 | COc1cc(C(=O)N(Cc2ccc(N(C)C)cc2)CC2CCCO2)cc(OC)c1OC (centres undefined) | inactive: 3.24% | –
62 | COc1ccc(-c2noc(-c3ccc(N4CCN(c5ccccc5OC)CC4)c([N+](=O)[O-])c3)n2)cc1 | inactive: 3.43% | –
63 | COc1ccc(N2CC(NC(=O)C3CCCCC3)CC2=O)cc1OC (centres undefined) | inactive: 0.166% | –
64 | O=C(c1cnc2c(c1)COc1ccc(Cl)cc1-2)c1ccccc1O | inactive: -8.4% | –
65 | COc1ccc(N2CCN(C(=O)CN3C(=O)COc4ccc(S(=O)(=O)N5CCC(C)CC5)cc43)CC2)cc1 | inactive: -25.2% | –
66 | CCOc1ccc(NC(=O)CCCOc2cc(=O)n(C)c3ccccc23)cc1 | inactive: -10.8% | –
67 | Cc1ccc2nc(-c3ccc(C)o3)c(Nc3ccc4c(c3)OCCO4)n2c1 | inactive: -3.66% | –
68 | COc1ccc(NC(=O)c2oc3ccccc3c2NC(=O)Cc2coc3ccc(C)cc23)cc1 | inactive: 4.81% | –
69 | CCCCN(CC)C(=O)c1nn(-c2ccc(OC)cc2)c(=O)c2c1c1ccccc1n2C | inactive: -7.53% | –
70 | COc1ccc(OC)c(CNC(=O)c2ccc3c(c2)c(C)c(C)n3C)c1 | inactive: 2.71% | –
71 | Cc1ccc(C)c(N2CCN(C(=O)c3cc4c(=O)oc5ccccc5c4s3)CC2)c1 | inactive: 1.25% | –
72 | O=C(Cn1c(=O)n(-c2ccccc2)c(=O)c2ccc(C(=O)NCc3ccc4c(c3)OCO4)cc21)Nc1ccc(Br)cc1 | inactive: -19.6% | –

Row | Compound | activity change, negative = inhibition | Potency
73 | CCOc1cc(CNC(=O)c2ccc3nc(C(C)C)oc3c2)cc(OCC)c1OCC | inactive: 5.1% | –
74 | O=C(CSc1nc2ncccc2o1)Nc1cccc(C(F)(F)F)c1 | inactive: -16.6% | –
75 | COc1ccc(N2CCN(S(=O)(=O)CCNC(=O)Cc3ccc(OC)c(OC)c3)CC2)cc1 | inactive: -4.02% | –
76 | Cc1nc(SCC(=O)Nc2nsc(-c3ccc(C(C)(C)C)cc3)n2)c2c3c(sc2n1)CCCC3 | inactive: 0.919% | –
77 | COC(=O)c1ccc(NC(=O)CCc2c(C)nc3c(c(C)nn3C(C)(C)C)c2C)cc1 | inactive: -7.51% | –
78 | CCN(C(=O)CSc1nc(-c2ccccc2)no1)c1ccccc1 | inactive: 5.55% | –
79 | Cc1ccc2occ(-c3cc(-c4ccc(F)cc4)nc4c3COc3ccc(F)cc3-4)c(=O)c2c1 | inactive: 0% | –
80 | Cc1ccccc1CSc1nc(-c2cccc(F)c2)nc2c1Cc1c(CO)cnc(C)c1O2 | inactive: -4.41% | –
81 | CN(C)C(=O)c1ccc2c(c1)N(CC(=O)NCc1ccccc1Cl)C(=O)C1CCCCN21 (centres undefined) | inactive: -1.14% | –
82 | COc1ccc(OC)c(CNC(=O)c2nn(C)c3c2CS(=O)(=O)c2ccccc2-3)c1 | inactive: -0.891% | –
83 | CC(=O)Nc1ccc(Nc2ncnc3c2cnn3C)cc1 | inactive: 1.7% | –
84 | CCCN(CCC)C(=O)Cn1c(=O)n(CCCCCC(=O)NCc2ccc3c(c2)OCO3)c(=O)c2sccc21 | inactive: 0.652% | –
85 | CCOc1ccccc1CNC(=O)c1oc2c(c1C)-c1[nH]ncc1CC2 | inactive: -1.46% | –
86 | CC1CCN(c2ncnc3c2c(-c2ccccc2)cn3-c2ccc(Br)cc2)CC1 | inactive: 7.89% | –
87 | CCOC(=O)c1c(NC(=O)c2cc(OC)c(OC)c(OC)c2)sc2c1CCCC2 | inactive: 3.65% | –
88 | COc1ccccc1-c1noc(CCCC(=O)Nc2cccc(C(F)(F)F)c2)n1 | inactive: 1.1% | –
89 | O=C(CN1C(=O)C2(SCC(=O)N2c2cccc(Cl)c2)c2ccccc21)NCc1ccccc1 (centres undefined) | inactive: 2.57% | –
90 | COc1ccc(-c2cn3nc(N4CCC(C(=O)Nc5cc(Cl)ccc5C)CC4)sc3n2)cc1 | inactive: 5.88% | –
91 | COc1ccccc1-c1cc2nc(C)c(CCC(=O)NCCc3cccc(C)c3)c(C)n2n1 | inactive: -0.0534% | –
92 | O=C(CCCCCn1c(=O)c2sccc2n(CC(=O)Nc2cc(C(F)(F)F)ccc2Cl)c1=O)NCc1ccccc1Cl | inactive: -2.21% | –
93 | CCc1cccc(-n2c(=O)c3cccnc3n2CC(=O)NCc2ccc(C)cc2)c1 | inactive: 2.61% | –
94 | Cc1ccc(NC(=O)Cn2cnc3onc(-c4ccc(F)cc4)c3c2=O)c(Cl)c1 | inactive: -7.05% | –
